Experimental data reported in PubChem BioAssay AID1224903 (Bradner/Qi Labs at DFCI, 2016).
Some of the results follow. These are further read-outs of the screen, such as a control signal, another cell line or another target. No call is given for them. Most of these compounds were active or inconclusive in the main read-out, so they are no random draw.

biological target: Chromobox protein homolog 7 (Homo sapiens) (UniProt O95931); assay: CBX7 chromodomain binding inhibitors, primary screen, biochemical, AlphaScreen (AID 1224903); settings: AlphaScreen His6-CBX7 / biotin-H3K27me3 peptide binding; measured here: z-score of CBX7 signal; stronger effect = lower value
Sequence of UniProt O95931 (O95931 whole entry, looked up): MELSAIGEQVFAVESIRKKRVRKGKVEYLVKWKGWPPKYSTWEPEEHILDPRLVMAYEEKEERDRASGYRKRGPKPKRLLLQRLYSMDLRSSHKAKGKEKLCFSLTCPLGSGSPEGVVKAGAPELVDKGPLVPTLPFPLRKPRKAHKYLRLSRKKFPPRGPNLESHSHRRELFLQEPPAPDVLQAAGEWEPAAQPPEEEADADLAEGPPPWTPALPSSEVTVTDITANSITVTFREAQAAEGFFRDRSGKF

Row | Structure (SMILES) | z-score
1 | Brc1ccc(CNc2ccc3c(c2)ncn3-c2ccccc2)cc1 | -4.77
2 | COc1ccc(C(=O)N2CC(=O)Nc3ccc(C)cc3C2c2ccc(F)cc2)c(OC)c1 (centres undefined) | -6.66
3 | CC(C)(C)c1ccc(-c2nnc3sc(-c4ccccn4)nn23)cc1 | -26.4
4 | Cc1ccc(CNc2ccc3c(c2)ncn3C(C)(C)C)cc1 | -17
5 | Cc1cccc(NC(=O)C(=O)NCCCn2ccnc2)c1 | -14.5
6 | CCN(CCCNC(=O)c1nn(-c2ccccc2OC)c(=O)c2ccccc12)c1cccc(C)c1 | -7.14
7 | O=C(CC(C(=O)N1CCc2ccccc21)n1ccnc1)NCCN1CCCCCC1 (centres undefined) | -16.6
8 | COc1ccccc1C(=O)NCCc1c(C)[nH]c2ccc(OCc3ccccc3)cc12 | -8.18
9 | CCn1c(C(=O)N2CCC(C(=O)N3CCN(c4cccc(C)c4)C(C)C3)CC2)cc2sccc21 (centres undefined) | -2.44
10 | Cc1nc(Nc2ccccc2F)c2c(C)c(C)sc2n1 | -0.694
11 | Cc1cc2ncn(CC(O)COc3ccccc3C)c2cc1C (centres undefined) | -15.6
12 | COc1cc(OC)c(NC2c3ccccc3C(=O)N2c2ccc(C)cn2)cc1Cl (centres undefined) | -7.85
13 | COc1ccc(C(NC(=O)CC(C)C)c2ccc3cccnc3c2O)cc1OC (centres undefined) | -3.3
14 | COc1ccc(-n2cnc3cc(NCc4ccccc4OC)ccc32)cc1 | -3.21
15 | COc1ccc(Cl)cc1NC(=O)c1c(NCc2sccc2C)sc2c1CCCC2 | -8.57
16 | COCc1nnc(NC(=O)c2ccc(S(=O)(=O)N(CCC#N)CCC#N)cc2)o1 | -1.63
17 | O=C(O)c1ccc(Nc2nc(-c3ccccn3)cs2)cc1 | -16.2
18 | CCOc1ccc(NCC(O)Cn2c(C)c(C)c3ccccc32)cc1 (centres undefined) | -6.09
19 | COc1ccc(Nc2nc(-c3sc(N)nc3C)cs2)cc1 | -13.6
20 | Cc1c(NC(=O)c2ncn[nH]2)cccc1-c1nc2cc(Cl)ccc2o1 | -24.9

Row | Structure (SMILES) | z-score
21 | CCN(CCCNC(=O)Cc1cn(C)c2ccccc12)c1cccc(C)c1 | -14.6
22 | COc1ccc(-n2cnc3cc(NCc4cccc(OC)c4OC)ccc32)cc1 | -5.03
23 | COc1ccc(CNc2ccc3c(c2)nc(C)n3Cc2ccccc2)cc1 | -11.8
24 | COc1ccc(OC)c(Nc2nc(-c3ccccn3)cs2)c1 | -7.94
25 | CCCCN(CCCC)S(=O)(=O)c1ccc(C(=O)Nc2nnc(C)o2)cc1 | -1.32
26 | Cc1ccc(Nc2c(-c3ccccn3)nc3ccc(C)cn23)cc1 | -19.8
27 | CCOC(=O)c1cnc2ccc(OC)cc2c1Nc1ccc2c(c1)OCCO2 | -2.33
28 | Cc1ccc(-c2csc(Nc3ccc(Cl)cc3)n2)cc1C | -11.9
29 | Cc1nc(Nc2cccc(C(F)(F)F)c2)c2c(C)c(C)sc2n1 | -0.722
30 | CCc1nnc(NC(=O)c2ccc(S(=O)(=O)N(CC)CC)cc2)o1 | -1.56
31 | CCOc1ccc(Nc2nc(-c3sc(NC(=O)c4ccccc4)nc3C)cs2)cc1 | -14.3
32 | O=C(CN1CCCC1)Nc1c2c(nc3c1CCC3)CCC2 | -9.77
33 | Cc1ccc(Nc2c(-c3ccc(N4CCOCC4)cc3)nc3sccn23)cc1C | -10.1
34 | COc1ccccc1-c1c(C)nn2c(NCc3ccccn3)cc(C)nc12 | -6.59
35 | Cc1nnc(NC(=O)c2ccc(S(=O)(=O)N3CC(C)CC(C)C3)cc2)o1 (centres undefined) | -0.814
36 | Oc1c(C(Nc2ccccc2)c2ccccc2)ccc2cccnc12 (centres undefined) | -12.3
37 | CCN1CCN(CCCNC(=O)COc2ccc3c(c2)C(=O)CC(C)(C)O3)CC1 | -10.8
38 | COCc1nnc(NC(=O)c2ccc(S(=O)(=O)N3CCCCCC3)cc2)o1 | -1.62
39 | C=CCc1ccccc1OCC(O)CN1CCN(c2ccc(C)cc2)CC1 (centres undefined) | -1.56
40 | COc1ccc(CN2C(=O)c3cccnc3C2Nc2ccc(OC)cc2)cc1 (centres undefined) | -12.6

Row | Structure (SMILES) | z-score
41 | CCc1nnc(NC(=O)c2ncn[nH]2)s1 | -27.9
42 | Cc1ccc(NC2c3ncccc3C(=O)N2Cc2ccc(F)cc2)cc1 (centres undefined) | -7.2
43 | CC1CCN(Cc2cc(Cl)c(O)c3ncccc23)CC1 | -27.6
44 | CCOc1ccccc1CNC(=O)CCCc1cn(C)c2ccccc12 | -0.616
45 | O=C(NCCCn1ccnc1)c1ccc(C#Cc2ccccc2)cc1 | -5.61
46 | Cn1c(CNc2ccccc2O)nc2ccccc21 | -22.2
47 | Cc1ccc2nc(-c3ccccn3)c(Nc3ccc4c(c3)OCCO4)n2c1 | -21.6
48 | Oc1cccc(Nc2nc(-c3ccccn3)cs2)c1 | -16.1
49 | CCC(C)(C)C1CCc2oc3ccc(NS(=O)(=O)c4cccs4)cc3c2C1 (centres undefined) | -1.62
50 | c1ccc(Oc2ccc(-c3[nH]c(-c4ccccc4)nc3-c3ccccc3)cc2)cc1 | -2.11
51 | Cc1ccc(-c2nc(-c3c[nH]c4ccccc34)[nH]c2-c2ccc(C)cc2)cc1 | -0.624
52 | CCOC(=O)CCCCC(=O)c1[nH]c(=O)[nH]c1CSc1nnc2c(n1)[nH]c1ccccc12 | -0.577
53 | COc1ccccc1-c1nnc(NC(=O)c2ccc(S(=O)(=O)N(C)Cc3ccccc3)cc2)o1 | -16.8
54 | CCCn1cnc2cc(NCc3ccc(Br)cc3)ccc21 | -19.4
55 | N#Cc1nc(COc2ccccc2Cl)oc1NCCCn1ccnc1 | -43.7
56 | Cc1c(Cl)cccc1Nc1nc(-c2ccccn2)cs1 | -6.78
57 | Cc1ccc(OCc2nc(C#N)c(N3CCCCCC3)o2)cc1 | -3.76
58 | O=C1c2cccnc2C(Nc2ccc(Cl)cc2)N1Cc1ccc(F)cc1 (centres undefined) | -8.06
59 | CCCN(CCC)S(=O)(=O)c1ccc(C(=O)Nc2nnc(C)o2)cc1 | -1.22
